No constants are given. Whether binding was seen depends on the method and setting. In cells and extracts the contact can be indirect. Some binding calls cover weakened binding; strength is not graded here. For part of these data: Where a sequence is shown, tags or fusion partners need not be part of it.
T1: HURP (Hepatoma Upregulated Protein) (human (endogenous in HeLa Kyoto)) (UniProt Q15398)
T1 sequence: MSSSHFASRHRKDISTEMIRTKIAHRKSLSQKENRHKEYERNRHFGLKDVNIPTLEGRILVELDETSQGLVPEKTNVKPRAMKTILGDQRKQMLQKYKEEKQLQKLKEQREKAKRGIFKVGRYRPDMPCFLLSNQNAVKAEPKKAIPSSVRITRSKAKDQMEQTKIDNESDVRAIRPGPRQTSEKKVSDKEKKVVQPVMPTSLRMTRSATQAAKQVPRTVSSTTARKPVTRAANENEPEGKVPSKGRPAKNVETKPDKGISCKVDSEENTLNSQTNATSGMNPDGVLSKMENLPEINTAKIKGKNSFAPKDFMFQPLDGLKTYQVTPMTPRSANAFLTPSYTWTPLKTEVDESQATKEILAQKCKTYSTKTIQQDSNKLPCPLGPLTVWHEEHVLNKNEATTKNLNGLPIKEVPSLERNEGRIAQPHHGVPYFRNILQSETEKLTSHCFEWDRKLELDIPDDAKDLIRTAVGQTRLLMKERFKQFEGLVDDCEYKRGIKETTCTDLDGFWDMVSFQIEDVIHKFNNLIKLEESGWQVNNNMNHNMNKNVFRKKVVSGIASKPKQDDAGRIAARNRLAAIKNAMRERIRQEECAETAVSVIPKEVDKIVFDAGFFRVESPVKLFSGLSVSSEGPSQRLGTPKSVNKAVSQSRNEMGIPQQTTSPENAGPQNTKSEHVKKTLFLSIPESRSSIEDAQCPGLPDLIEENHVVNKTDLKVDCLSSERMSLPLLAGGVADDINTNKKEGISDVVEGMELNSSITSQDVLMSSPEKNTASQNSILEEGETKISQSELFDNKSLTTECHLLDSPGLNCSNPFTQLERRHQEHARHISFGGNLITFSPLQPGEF

Chains of the proteins cited; added tags and fusions are not shown.
UniProt Q9ULW0: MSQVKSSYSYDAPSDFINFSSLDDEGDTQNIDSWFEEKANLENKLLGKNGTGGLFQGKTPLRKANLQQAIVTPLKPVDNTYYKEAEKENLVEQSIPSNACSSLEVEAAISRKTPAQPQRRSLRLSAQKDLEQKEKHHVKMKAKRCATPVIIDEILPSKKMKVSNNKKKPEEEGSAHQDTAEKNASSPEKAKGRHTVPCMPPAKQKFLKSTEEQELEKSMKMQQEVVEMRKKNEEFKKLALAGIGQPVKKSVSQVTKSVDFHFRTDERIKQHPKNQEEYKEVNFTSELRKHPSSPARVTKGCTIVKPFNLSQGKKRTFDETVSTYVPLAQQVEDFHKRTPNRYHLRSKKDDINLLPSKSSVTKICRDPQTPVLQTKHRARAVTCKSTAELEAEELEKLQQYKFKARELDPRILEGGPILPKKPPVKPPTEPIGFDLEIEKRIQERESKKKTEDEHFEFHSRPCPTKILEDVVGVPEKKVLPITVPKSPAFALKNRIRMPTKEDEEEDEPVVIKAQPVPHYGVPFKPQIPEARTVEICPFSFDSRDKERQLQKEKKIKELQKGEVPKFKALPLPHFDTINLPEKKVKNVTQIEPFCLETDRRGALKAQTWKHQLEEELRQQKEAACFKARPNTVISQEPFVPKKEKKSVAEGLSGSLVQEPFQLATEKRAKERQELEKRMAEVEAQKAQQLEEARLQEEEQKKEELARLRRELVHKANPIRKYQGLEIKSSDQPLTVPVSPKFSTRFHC
UniProt P52732: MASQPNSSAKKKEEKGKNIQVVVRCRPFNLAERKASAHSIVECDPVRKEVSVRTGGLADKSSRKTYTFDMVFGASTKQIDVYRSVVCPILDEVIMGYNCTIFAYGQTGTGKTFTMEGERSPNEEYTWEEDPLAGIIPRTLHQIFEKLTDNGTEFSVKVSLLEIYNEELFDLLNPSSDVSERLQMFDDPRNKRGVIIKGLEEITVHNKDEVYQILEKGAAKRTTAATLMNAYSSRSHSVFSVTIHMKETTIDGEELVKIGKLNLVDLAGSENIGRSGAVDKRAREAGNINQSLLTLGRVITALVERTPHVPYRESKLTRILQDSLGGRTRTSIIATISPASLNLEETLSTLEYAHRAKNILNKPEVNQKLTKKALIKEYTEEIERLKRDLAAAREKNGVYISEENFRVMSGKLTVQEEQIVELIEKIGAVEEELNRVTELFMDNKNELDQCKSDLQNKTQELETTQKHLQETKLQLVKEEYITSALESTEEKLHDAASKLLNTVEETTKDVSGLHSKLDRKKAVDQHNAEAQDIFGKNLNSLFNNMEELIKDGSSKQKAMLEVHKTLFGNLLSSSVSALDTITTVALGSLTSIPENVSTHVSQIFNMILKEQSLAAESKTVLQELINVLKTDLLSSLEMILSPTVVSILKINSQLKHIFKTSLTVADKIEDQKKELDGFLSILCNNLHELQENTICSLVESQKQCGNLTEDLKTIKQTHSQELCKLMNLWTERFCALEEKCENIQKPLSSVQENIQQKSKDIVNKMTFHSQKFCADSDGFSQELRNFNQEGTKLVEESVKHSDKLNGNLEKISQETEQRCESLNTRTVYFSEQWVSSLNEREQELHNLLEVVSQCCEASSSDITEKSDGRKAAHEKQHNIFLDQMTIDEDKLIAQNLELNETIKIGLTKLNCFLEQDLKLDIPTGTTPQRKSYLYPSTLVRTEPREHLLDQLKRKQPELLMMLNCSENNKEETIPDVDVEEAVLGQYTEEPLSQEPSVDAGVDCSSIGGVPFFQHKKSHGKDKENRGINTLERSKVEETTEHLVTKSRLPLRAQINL
UniProt Q14974: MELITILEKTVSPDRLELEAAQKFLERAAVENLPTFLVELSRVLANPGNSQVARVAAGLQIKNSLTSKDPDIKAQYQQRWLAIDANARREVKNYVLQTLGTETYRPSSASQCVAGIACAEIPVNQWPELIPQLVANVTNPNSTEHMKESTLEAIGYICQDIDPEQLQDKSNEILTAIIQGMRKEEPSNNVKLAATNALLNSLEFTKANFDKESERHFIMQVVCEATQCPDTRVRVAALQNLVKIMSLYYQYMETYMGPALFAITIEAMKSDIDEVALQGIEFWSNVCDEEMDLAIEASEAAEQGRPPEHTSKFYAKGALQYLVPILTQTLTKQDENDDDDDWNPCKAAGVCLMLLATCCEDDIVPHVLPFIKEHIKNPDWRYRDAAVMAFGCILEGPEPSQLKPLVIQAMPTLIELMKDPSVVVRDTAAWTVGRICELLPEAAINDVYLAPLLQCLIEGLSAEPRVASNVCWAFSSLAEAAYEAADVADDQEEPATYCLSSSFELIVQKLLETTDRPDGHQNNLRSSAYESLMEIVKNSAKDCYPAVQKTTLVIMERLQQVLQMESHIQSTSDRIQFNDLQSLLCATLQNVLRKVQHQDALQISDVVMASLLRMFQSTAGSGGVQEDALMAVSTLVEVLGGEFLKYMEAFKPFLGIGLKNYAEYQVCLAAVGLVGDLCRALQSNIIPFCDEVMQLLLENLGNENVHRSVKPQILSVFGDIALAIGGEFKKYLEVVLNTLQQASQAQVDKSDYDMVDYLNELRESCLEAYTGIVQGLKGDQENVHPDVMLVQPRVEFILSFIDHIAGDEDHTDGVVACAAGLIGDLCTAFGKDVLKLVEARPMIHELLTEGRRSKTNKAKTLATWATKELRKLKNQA
UniProt P33176: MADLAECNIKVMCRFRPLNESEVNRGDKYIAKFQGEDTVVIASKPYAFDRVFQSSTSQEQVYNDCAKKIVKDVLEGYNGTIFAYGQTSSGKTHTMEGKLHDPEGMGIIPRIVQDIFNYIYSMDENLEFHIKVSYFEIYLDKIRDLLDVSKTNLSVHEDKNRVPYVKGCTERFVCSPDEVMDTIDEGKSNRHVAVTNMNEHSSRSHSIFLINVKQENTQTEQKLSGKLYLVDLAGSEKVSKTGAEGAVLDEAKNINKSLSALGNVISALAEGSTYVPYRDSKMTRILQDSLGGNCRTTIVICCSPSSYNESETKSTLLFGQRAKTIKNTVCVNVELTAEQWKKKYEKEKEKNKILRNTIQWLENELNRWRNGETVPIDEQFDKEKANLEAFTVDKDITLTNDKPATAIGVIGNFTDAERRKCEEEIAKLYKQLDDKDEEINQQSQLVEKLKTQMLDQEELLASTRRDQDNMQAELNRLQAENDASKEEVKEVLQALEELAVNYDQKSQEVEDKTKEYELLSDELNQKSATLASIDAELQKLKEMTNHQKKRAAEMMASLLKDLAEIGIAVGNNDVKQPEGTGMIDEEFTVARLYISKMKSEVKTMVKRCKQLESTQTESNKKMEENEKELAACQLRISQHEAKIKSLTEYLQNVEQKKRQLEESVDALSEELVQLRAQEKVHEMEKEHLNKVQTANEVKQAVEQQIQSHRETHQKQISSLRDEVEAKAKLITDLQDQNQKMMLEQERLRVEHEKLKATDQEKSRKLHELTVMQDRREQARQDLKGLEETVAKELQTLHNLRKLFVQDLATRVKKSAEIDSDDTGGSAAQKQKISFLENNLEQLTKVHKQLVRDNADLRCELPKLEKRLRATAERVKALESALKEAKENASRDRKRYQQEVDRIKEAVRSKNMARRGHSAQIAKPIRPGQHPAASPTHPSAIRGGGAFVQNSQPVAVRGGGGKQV

T2: eGFP-HURP S627A (UniProt Q15398)
T2 sequence: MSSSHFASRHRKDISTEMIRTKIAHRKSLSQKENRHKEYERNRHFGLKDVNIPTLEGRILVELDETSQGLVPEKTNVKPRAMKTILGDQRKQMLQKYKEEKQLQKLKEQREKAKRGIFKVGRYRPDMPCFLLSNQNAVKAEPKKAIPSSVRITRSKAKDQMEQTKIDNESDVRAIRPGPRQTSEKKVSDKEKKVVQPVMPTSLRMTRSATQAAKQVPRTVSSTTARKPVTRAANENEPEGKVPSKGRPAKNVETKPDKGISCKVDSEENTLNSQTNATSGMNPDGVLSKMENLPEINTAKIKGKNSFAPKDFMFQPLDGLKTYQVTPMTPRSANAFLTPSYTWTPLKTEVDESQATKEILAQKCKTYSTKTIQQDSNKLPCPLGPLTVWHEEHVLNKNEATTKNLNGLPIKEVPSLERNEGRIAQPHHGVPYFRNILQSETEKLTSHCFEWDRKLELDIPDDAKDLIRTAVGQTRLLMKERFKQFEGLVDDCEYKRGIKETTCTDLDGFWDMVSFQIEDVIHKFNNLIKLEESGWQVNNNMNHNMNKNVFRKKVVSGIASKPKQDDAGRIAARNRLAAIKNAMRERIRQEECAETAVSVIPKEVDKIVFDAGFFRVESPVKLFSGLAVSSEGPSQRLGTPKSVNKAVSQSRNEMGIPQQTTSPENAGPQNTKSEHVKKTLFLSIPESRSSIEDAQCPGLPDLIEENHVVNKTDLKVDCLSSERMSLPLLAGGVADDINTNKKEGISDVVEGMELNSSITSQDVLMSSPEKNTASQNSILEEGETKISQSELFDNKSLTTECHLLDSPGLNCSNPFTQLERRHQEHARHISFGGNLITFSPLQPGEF

T3: eGFP-HURP WT (UniProt Q15398)
T3 sequence: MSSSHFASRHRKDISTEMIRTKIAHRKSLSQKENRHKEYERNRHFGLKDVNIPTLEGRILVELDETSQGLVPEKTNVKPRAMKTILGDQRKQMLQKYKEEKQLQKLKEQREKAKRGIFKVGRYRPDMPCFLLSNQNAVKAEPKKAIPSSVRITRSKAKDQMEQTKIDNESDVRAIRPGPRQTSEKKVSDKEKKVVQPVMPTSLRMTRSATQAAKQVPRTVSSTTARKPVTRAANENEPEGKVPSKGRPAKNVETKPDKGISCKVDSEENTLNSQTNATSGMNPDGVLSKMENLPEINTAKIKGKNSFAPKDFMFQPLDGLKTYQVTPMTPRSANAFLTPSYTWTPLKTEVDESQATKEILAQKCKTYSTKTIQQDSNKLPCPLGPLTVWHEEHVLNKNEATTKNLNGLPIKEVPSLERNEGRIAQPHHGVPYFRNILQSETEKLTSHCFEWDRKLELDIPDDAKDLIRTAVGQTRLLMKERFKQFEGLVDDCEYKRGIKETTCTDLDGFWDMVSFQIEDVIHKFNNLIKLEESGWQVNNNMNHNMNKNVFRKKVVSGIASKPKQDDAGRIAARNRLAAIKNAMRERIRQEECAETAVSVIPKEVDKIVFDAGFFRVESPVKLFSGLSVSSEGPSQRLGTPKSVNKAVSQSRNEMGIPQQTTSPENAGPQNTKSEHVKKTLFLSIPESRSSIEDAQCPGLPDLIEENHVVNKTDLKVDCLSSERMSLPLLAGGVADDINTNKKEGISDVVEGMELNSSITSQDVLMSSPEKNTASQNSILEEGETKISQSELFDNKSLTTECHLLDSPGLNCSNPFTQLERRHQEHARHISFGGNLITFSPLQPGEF


Columns and labels:
[1] = target: T1, HURP (Hepatoma Upregulated Protein) (human (endogenous in HeLa Kyoto)); assay: co-IP; HeLa Kyoto mitotic cell extracts (Nocodazole arrest, RIPA buffer, 1 mg per IP); IP with anti-HURP antibodies (ab70744, GKAP or DHL5 antisera) on protein A agarose, 4°C; Western blot; controls pre-immune IgG, rabbit IgG or anti-GFP antibody
[2] = target: T2, eGFP-HURP S627A; assay: co-IP; mitotic extracts of HeLa Kyoto cells transfected with eGFP, eGFP-HURP WT or eGFP-HURP S627A; IP with anti-GFP mouse monoclonal antibody on protein G agarose, 4°C, RIPA buffer; Western blot
[3] = target: T3, eGFP-HURP WT; assay: as above

Molecule	binding [1]	binding [2]	binding [3]
TPX2 (from UniProt Q9ULW0 1-747)	binds	binds	binds
Aurora A (enzyme, UniProt O14965 1-403) MDRSKENCISGPVKATAPVGGPKRVLVTQQFPCQNPLPVNSGQAQRVLCPSNSSQRIPLQAQKLVSSHKPVQNQKQKQLQATSVPHPVSRPLNNTQKSKQPLPSAPENNPEEELASKQKNEESKKRQWALEDFEIGRPLGKGKFGNVYLAREKQSKFILALKVLFKAQLEKAGVEHQLRREVEIQSHLRHPNILRLYGYFHDATRVYLILEYAPLGTVYRELQKLSKFDEQRTATYITELANALSYCHSKRVIHRDIKPENLLLGSAGELKIADFGWSVHAPSSRRTTLCGTLDYLPPEMIEGRMHDEKVDLWSLGVLCYEFLVGKPPFEANTYQETYKRISRVEFTFPDFVTEGARDLISRLLKHNPSQRPMLREVLEHPWITANSSKPSNCQNKESASKQS	binds	binds	binds

Results, then the molecule that gave them:

binding [1]	binding [2]	binding [3]	Molecule
binds weakly			Eg5 (from UniProt P52732 1-1056)
	no binding	binds	Importin β (from UniProt Q14974 1-876)
binds	no binding	binds	Kif5B (from UniProt P33176 1-963)
